Laboratory results taken from PubChem BioAssay AID1159614 (National Center for Advancing Translational Sciences (NCATS), 2016).
The campaign covered roughly 45,000 compounds. About 65 (0.1%) were called active. Calls follow the shape of the dose curve; as a rule, active = well fitted activation curve with a large enough effect; inconclusive = small, poorly fitted or top-dose-only effect; inactive = no such curve, though single readings can be large or run the other way. Some of the results follow.

What follows are compounds tested against Galactocerebrosidase (Homo sapiens) (UniProt P54803) (assay: A Novel Cell-Based Assay to Identify Small Molecules for B -Galactocerebrosidase). Settings: 145M-Twi-hGALC-G270D cells (Twitcher mouse brain line with human GALC G270D), HMU-beta-Gal fluorescence, 48 h; series mostly up to 57.5 µM; activation: at the top concentration.
Outline: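 Mutant human GALC (G270D), stably expressed in a Twitcher mouse brain cell line lacking endogenous GALC, is measured in live-treated cells via 6-hexadecanoylamino-4-methylumbelliferyl-β-galactoside hydrolysis (0.1 mM final, pH 5.2) with fluorescent detection.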
Also: 0% is about no effect; nearly all actives have a fitted effect of over 65% in size.

Sequence of UniProt P54803 (P54803 whole entry, looked up): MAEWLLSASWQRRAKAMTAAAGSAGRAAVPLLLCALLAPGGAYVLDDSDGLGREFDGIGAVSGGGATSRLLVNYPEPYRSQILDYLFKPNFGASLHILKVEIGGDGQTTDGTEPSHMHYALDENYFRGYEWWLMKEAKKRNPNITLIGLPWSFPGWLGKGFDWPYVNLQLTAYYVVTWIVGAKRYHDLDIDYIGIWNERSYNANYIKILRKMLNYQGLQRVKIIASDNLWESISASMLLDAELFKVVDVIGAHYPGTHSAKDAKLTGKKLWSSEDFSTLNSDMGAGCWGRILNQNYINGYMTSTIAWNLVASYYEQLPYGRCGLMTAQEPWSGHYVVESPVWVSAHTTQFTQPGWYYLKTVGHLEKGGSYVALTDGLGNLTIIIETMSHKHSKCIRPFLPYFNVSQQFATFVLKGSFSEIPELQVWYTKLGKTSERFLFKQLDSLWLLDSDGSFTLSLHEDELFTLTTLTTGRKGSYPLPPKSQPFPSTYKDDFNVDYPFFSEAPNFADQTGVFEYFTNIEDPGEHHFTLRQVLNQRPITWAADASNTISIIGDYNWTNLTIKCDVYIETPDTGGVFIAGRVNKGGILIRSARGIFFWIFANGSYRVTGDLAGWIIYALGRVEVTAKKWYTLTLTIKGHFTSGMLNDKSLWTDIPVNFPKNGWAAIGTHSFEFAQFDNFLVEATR

activation, inactive:
Cc1oc2ncn(CC(C)C)c(=O)c2c1C(=O)NCCCN1CCCCC1 -8.07%
O=C(COc1ccc(F)cc1)Nc1ccc2nc(SCC(=O)N3CCc4ccccc43)sc2c1 -16.6%
COc1ccccc1CNC(=O)c1ccc(N2CCCC2)c(NC(=O)NCCC(C)C)c1 -18%
Cc1cc(C)c(NC(=O)c2cc3sc(Cl)cc3n2C)c(C)c1 -0.544%
COc1cccc(NC(=O)CSc2ncc(S(=O)(=O)c3ccc(C)c(C)c3)c(=O)[nH]2)c1 -13.2%
O=C(NCC(c1ccco1)S(=O)(=O)c1cccs1)c1ccc(F)cc1 (stereo not drawn) -5.24%
Cc1ccc(C)c(CN2C(=O)c3ccccc3S(=O)(=O)c3ccc(C(=O)N4CCCCCC4)cc32)c1 9.41%
CCOC(=O)c1ccc2oc(=O)n(Cc3ccccc3)c2c1 -4.27%
CC(=O)Nc1ccc(C2Sc3ccccc3NC3=C2C(=O)c2ccccc23)cc1 (stereo not drawn) -5.61%
CCc1c(-c2ccccc2)nc2ccccc2c1C(=O)NCCc1ccccc1 -14.2%
CSc1cccc(NC(=O)Cn2c3ncccc3c(=O)n2-c2ccc(C)cc2)c1 -8.37%
Cc1csc2nc(COc3ccccc3NC(=O)c3ccco3)cc(=O)n12 -6.5%
Cc1ccccc1OCC(=O)OCc1cc(=O)n2nc(C3CCCCC3)sc2n1 -14.6%
CC(=O)c1ccc(N2CCN(S(=O)(=O)c3ccc(-c4cc(C(F)(F)F)on4)s3)CC2)cc1 -15.4%
Cc1ccc2c(=O)cc(C(=O)Nc3cccc(Cl)c3C)oc2c1C -20.8%
COc1cc(NC(=O)CCc2nc(-c3cccs3)no2)cc(OC)c1OC -15.7%
Cc1ccc(C(=O)CC2(O)C(=O)N(CCc3ccccc3)c3ccc(Cl)cc32)cc1 (stereo not drawn) 6.16%
Cc1cc(Nc2cccc(C)c2C)n2cnnc2n1 -7.91%
Cn1c(=O)c2c(-c3ccccc3Cl)n(-c3cc(Cl)ccc3O)cc2n(C)c1=O -19.1%
COc1ccc(OCCCCn2c(-c3ccc(Cl)cc3)nc3ccccc3c2=O)cc1 -8.88%
CCCCCOC(=O)CSc1ncnc2c1sc1nc(N3CCOCC3)c3c(c12)CCCC3 -20.8%
CCc1ccc2ncc3c(-c4ccc(F)cc4)nn(CC(=O)NCc4ccccc4)c3c2c1 -15.6%
COc1ccc(CNC(=O)c2c(O)nc3cc(C)ccn3c2=O)cc1 -2.27%
Cc1nc(C)c(-c2ccc(SCC(=O)Nc3ccc(C)c(F)c3)nn2)s1 -14.6%
CCOc1ccc(-c2nc(SCC(=O)Nc3ccc(C)c(C)c3)n3[nH]c(=O)cc3n2)cc1 -23.6%
Cc1ccc(C(C)C)c(OCC(=O)Nc2ccc(C(=O)OC3CCCCC3)cc2)c1 -8.76%
CC(C)CC(C(=O)NCc1ccc(F)cc1)N1Cc2ccccc2C1=O (stereo not drawn) -17.1%
COc1ccc(Nc2ncc(C(=O)N3CCN(c4cccc(Cl)c4)CC3)c3ccccc23)cc1 -30.6%
Cc1ccc(C)c(-n2c(CCC(=O)O)ccc2-c2ccc(Cl)cc2)c1 -4.76%
Cc1cccc(NC(=O)CSc2nc(-c3ccccc3)cn2-c2ccccc2)c1C -8.84%
COCCn1ccc2c(OCC(=O)Nc3cccc(OC)c3)cccc2c1=O -4.83%
COc1cccc(CNC(=O)Cc2ccc(NC(=O)N3CCCCc4ccccc43)cc2)c1OC 3.46%
CCc1nnc(SCc2nc(-c3ccc(OC)c(OC)c3)oc2C)c2cc3sc(C)cc3n12 0.644%
Cc1ccc(/C=C/c2onc(C)c2S(=O)(=O)N2CCC(C(=O)NCc3ccc(C)o3)CC2)cc1 1.18%
Cc1ccc2oc(-c3ccc(C)c(NC(=O)c4ccc(C(C)(C)C)cc4)c3)nc2c1 10%
CC(C(=O)Nc1cc(C(F)(F)F)ccc1Cl)n1nnc2sc3c(c2c1=O)CCCC3 (stereo not drawn) -1.15%
Cc1ccccc1C(=O)NCc1nc2cccnc2n1Cc1ccccc1 -4.91%
COc1cccc(CNC(=O)c2nn(-c3ccccc3Cl)nc2CO)c1 -12.5%
COc1ccc(N2CCN(C(=O)c3ccc4c(c3)N(Cc3ccc(F)cc3)C(=O)c3ccccc3S4=O)CC2)cc1 (stereo not drawn) -1.64%
COc1ccccc1C(=O)n1nc(-c2ccco2)nc1NCc1ccc(Cl)cc1 -15.2%
CCN1CCN(C(c2ccccc2)c2sc3nc(-c4ccco4)nn3c2O)CC1 (stereo not drawn) 2.26%
Cc1ccc(-c2csc(=Nc3ccccc3)n2Cc2ccc3c(c2)OCO3)cc1C -24.1%
COc1ccc(S(=O)(=O)c2c(Nc3ccc(F)cc3)sc(C(=O)c3ccc4c(c3)OCO4)c2N)cc1 -15.1%
CCOc1ccccc1C(=O)Oc1c(Sc2ccccc2)c(C)nn1C(C)(C)C -20%
COCCc1nn2c(=O)cc(COC(=O)COc3ccc(F)cc3)nc2s1 -12%
COc1ccccc1NC(=O)c1c(NCc2ccc(C)o2)sc2c1CCC(C)C2 (stereo not drawn) -11.7%
CCCOC(=O)c1c(NC(=O)C2c3ccccc3Oc3ccccc32)sc2c1CCC(C)C2 (stereo not drawn) -5%
COc1ccc(-c2cn3c(n2)sc2cc(C(=O)NCCCN4CCCCCC4)ccc23)cc1 -14.7%
CCC(O)c1cc2c(cc1NC(=O)c1cccc(Br)c1)OCCO2 (stereo not drawn) -3.35%
CCCSc1ncc(Cl)c(C(=O)N(Cc2ccc(N(C)C)cc2)C2CCS(=O)(=O)C2)n1 (stereo not drawn) 3.14%
COc1ccc(NC(=O)Cn2cnc3sc(C)c(S(=O)(=O)N4CCN(C)CC4)c3c2=O)cc1Cl -6.68%
CN1CCN(c2oc(-c3ccc(COc4ccc(Cl)cc4)o3)nc2C#N)CC1 -8.16%
CC(C)C12CN3CC(C(C)C)(CN(C1)C3c1ccc(Cl)cc1)C2=O (stereo not drawn) -0.953%
COc1ccc(-c2nc3ccccc3o2)cc1NC(=O)C(C)Oc1ccc(Cl)cc1Cl (stereo not drawn) -1.09%
Cc1nc2ccccc2n1CCc1nc2c3ccccc3nc(SCC(=O)Nc3ccc(Br)cc3F)n2n1 2.2%
O=C(CN1C(=O)CCc2cc(S(=O)(=O)N3CCOCC3)ccc21)Nc1cccc(Cl)c1 1.88%
Cc1ccc(CNC(=O)CSc2nc(=O)[nH]c3c2CCCC3)cc1 -14.9%
CN(C)CCCN(C(=O)c1cccs1)c1nc2ccc(F)cc2s1 -11.8%
N#Cc1nc(-c2ccc(COc3ccccc3)o2)oc1NCc1ccccc1 -5.73%
Cc1cccc(OC(=O)c2cc(-c3ccc4c(c3)OCCO4)on2)c1 -9%
Cc1ccc(NS(=O)(=O)c2ccc3c(c2)NC(=O)CCS3)cc1C -5.34%
CC(C)(C)OC(=O)N1CCC(c2c(C(=O)N3CCN(c4ncccn4)CC3)cnn2-c2ccccc2)CC1 -1.12%
Cc1ccccc1-n1c(/C=C/c2c(C)n(C)c3ccccc23)nc2ccccc2c1=O 15.6%
CNC(=O)C1CCC(Cn2c(=O)[nH]c3ccsc3c2=O)CC1 (stereo not drawn) -18.6%
CCOC(=O)c1ccc(N2C(=O)c3n[nH]c(C)c3C2c2ccc(C(C)(C)C)cc2)cc1 (stereo not drawn) -12.9%
CCOC(=O)CNC(=O)N1CCc2cc(S(=O)(=O)N3CCC(C)CC3)ccc21 -2.18%
CCN(CC)S(=O)(=O)c1ccc(C(=O)Nc2nc3c(Cl)cc(Cl)cc3s2)cc1 -17.6%
CCOC(=O)c1ccc(NC(=O)COCc2cc(-c3ccc4c(c3)OCO4)on2)cc1 -15.3%
CSc1ccc(CNc2ncc(-c3ccccc3)n2C)cc1 -7.45%
CCOC(=O)c1cccc(NC(=O)c2cc(CN3CCOCC3)on2)c1 -15.5%
CC(=O)N1CCCc2cc(S(=O)(=O)N(C)CC(=O)Nc3ccc(C)cc3C)ccc21 -12.4%
COc1ccc(CCN(C)CCCC(C#N)(c2ccc(OC)c(OC)c2)C(C)C)cc1OC (stereo not drawn) -20.6%
Cc1noc(Cn2c(=O)c3ccccc3n(CC(=O)Nc3cccc(Cl)c3C)c2=O)n1 -5.8%
CC(C)c1ccc(OCC(=O)Nc2c(Cl)ccc3nsnc23)cc1 -9.29%
N#Cc1nc(/C=C/c2ccc(F)cc2)oc1N1CCN(c2ccccc2)CC1 -13%
CCCn1c2ccccc2c2cnn(CC(=O)N3CCC(C(=O)OCC)CC3)c(=O)c21 -15.6%
Cc1ccc(CNc2nc3ccccc3n3c(C)nnc23)cc1 -19.2%
Cc1cccc(-c2noc(-c3cccnc3NCc3ccco3)n2)c1 0.546%
COc1cccc(C2c3c(oc4ccc(C)cc4c3=O)C(=O)N2CCCN2CCOCC2)c1OC (stereo not drawn) -41.4%
O=C(Nc1cccc(NC(=O)c2ccc(Br)o2)c1)c1ccccc1 -6.77%
COc1ccc(-n2c(=O)c3c4c(sc3n(Cc3cc(C)ccc3C)c2=O)CN(C(C)=O)CC4)c(OC)c1 -33.9%
Cc1ccccc1-n1cc(-c2ccccc2)nc1SCC(=O)Nc1ccc(F)cc1 -1.95%
Cc1onc(-c2ccccc2)c1-c1ccc(S(N)(=O)=O)cc1 -5.7%
Cc1ccc(Sc2c(C)nn(C(=O)COc3ccc(F)cc3)c2C)cc1 -15.2%
O=C(NCCN1CCN(c2ccccc2)CC1)Nc1ccccc1Br -18.6%
Cc1cc2oc(=O)c(CC(=O)O)c(C)c2c2occ(-c3ccc(F)cc3)c12 -19.6%
Cc1ccc(N2CC(NC(=O)c3ccc(S(=O)(=O)N4CCOCC4)cc3)CC2=O)cc1C (stereo not drawn) -18.4%
Cc1cccc(CNC(=O)C2CCN(c3nnc(-n4c(C)ccc4C)s3)CC2)c1 -9.54%
Cn1c(C(=O)NCCc2ccccc2)cc2c(=O)n3ccccc3nc21 3.86%
COc1ccc(CCNC(=O)CCCn2c(=O)c3ccccc3n(Cc3ccc(F)cc3Cl)c2=O)cc1OC -7.94%
O=C(c1ccc2c(c1)OCCO2)N(Cc1cccnc1)c1nc2c(F)cccc2s1 -15.6%
Cc1cccc(-c2noc(CN(C(=O)c3ccccc3Cl)C(C)C)n2)c1 -12.3%
CCCSc1oc(-c2cccs2)nc1S(=O)(=O)c1ccc(Cl)cc1 -33.3%
O=C(c1cnc(N2CCCCC2)c2ccccc12)N1CCN(c2ccccc2F)CC1 -8.67%
Cc1ccc2c(c1)c1c(c(=O)n(Cc3ccccc3)c(=O)n1Cc1cccc(C(F)(F)F)c1)n2C -1.41%
COc1ccc(Cn2c(CNS(=O)(=O)c3ccc4c(c3)CCCC4)nc3cccnc32)cc1 -33.5%
Cc1ccc(CNc2nc3ccccc3c3nc(-c4cccc(C)c4)nn23)cc1 -10.6%
CCOc1ccc(C(=O)NCCc2sc3nc(-c4ccc(Cl)cc4)nn3c2C)cc1OCC -18.1%
